From the supplement of paper PMC12632987
The full ranking holds about 4,500 sequences; the median of “median log2 fold change of GCK-ALFA target abundance (FLAG IP / Myc IP barcode read proportion)” is about 0.078, and the lowest 2% start at about -0.6. The list shows a part of the results.

B1: GBRAP_52_5984 (protein)
chain: MREEMREHARRLVELELAGREEEARALLERLAAELSEEELEEIARELAELAKTASPEEIDAIVRVAELLEDVWLAAGRDEALADDGLARVAAAAYDALQA
B2: GBRAP_160_4011 (protein)
chain: GEEIEELKKEIKEIFEELKEWIKGETPEERLTLVKGAMGEVLELVFSSPAVSDETEDKIAEILDETEKEFEKNKNATLEEWYKLIDETLEKIFELLDKDE
B3: GBRAP_52_6132 (protein)
chain: MEERMRAIAEELVALAAAGDEEGLRKRVREIARELSDEEIIELARELGRMLLEADEETAELILRVAELLIDELPKAGRSEETVSEVEGIIARAGYEKELK
B4: GBRAP_184_5288 (protein)
chain: MVEKVVIEAENAEEAIEKIKEEAEKAKKEGVKLEIYLFLKNVDVEGFKKIMELLKKYKEEGIIKDAIVDILDERTEEETDEFVKIADEAGVKLVLALSDE
B5: GBRAP_160_4088 (protein)
chain: MEKVKKLIEEIKELAEEAKEMIEGESIEQRATIVRGLGGDVIMLLFESGVVSDEVEDFADEEFDALVATILANPDLTEAEIKALLDEVVEAVIKKIKAEA
B6: GBRAP_14_3807 (protein)
chain: MEEKKKAITDNTDELKEIVTEILKDAPQEVRDAVLAAIEDFRKTVIENNLNPDEIAELGDELVKKVEEITKDLPADVRARVLAAVRVHTGEIILEVEELE
B7: GBRAP_80_6764 (protein)
chain: MRERLEAALAELGELLPELAERLRETVERLLELGVPVELLLRLLEALVELAKLDKERAREILEEFIEEANEAIEAGDREEVEALVVDAESDALLEVEELE
B8: GBRAP_83_6886 (protein)
chain: KEKITVAGPGDRIEEMADIVIDLTKEEGYEVTVEILARPEELEKVKEGVKRLAEAGVNTEIVIYLEGATEEEAEELKEEIEEIAEEYGVDIEVEVILEEP
B9: GBRAP_128_3413 (protein)
chain: SREETVARARELLEAMLTADEETQRELARELAELILNSDLETAEAIAEVILEMLPRFTAEQLDILADELEKQRPLFTPEKQNLVAEVIVEALNRAEELEE
B10: GBRAP_150_3899 (protein)
chain: SWEEALLLAETALDLVEGIRDGEYSLLPHAIKLLKELVEELKEIDEELAKKAKKALELLLKAEKLIKAGGDEKEIQKLIDEAIKILEELVKEIKKKIKEK
B11: GBRAP_177_5017 (protein)
chain: MTLEELRAMIEDPNTTAEEVFKALIEAVKDLSAEEVIELLAEALNTKELDEESYKEAAKLILALEKEQGVSVATVFGYLIEHVDAEKVEKILEAYAEEEE
B12: GBRAP_125_3116 (protein)
chain: GMDATLENLATLMRALGFSEEDIEEALKLAREFGIKNTMIAFFLALGEEELADLAAQLSEEAVKEALARVAAYIAAHPDLTPEEVIAKTKEVLEEALAKQ
B13: GBRAP_160_4195 (protein)
chain: SAEIEALKKEIKEIAEEAIKMIEGQTYEERLVIVEGALGQIVLLLSESPVVSDEAEDEAAEIADEAIAYLRANPDLTEEEIKKLIKETTEKIIEVLDEAD
B14: GBRAP_52_5922 (protein)
chain: SAAAAEAAARAILDAALAGDEAAMKALIEELVKTFSDEEIETVIEALARLIAARGPEHYDLFAKIMDLLEDAAEKAGRDVELIQYAIARGFGILYDAEQA
B15: GBRAP_52_6274 (protein)
chain: MEEEAEELANEFIEVALNGTEEEIEAFAKELVATKSQELIAKVLEIVVEKAKSLNAEEIEKLLEAVLILEEELAEAGKDTLPAEDAAAELAKLHEEKLKA
B16: GBRAP_35_5505 (protein)
chain: SSMETEVEMLVATIEDAVLAVPDLPVEQAAAIANSLIKSAEELAKEAKDDPEGLERLLKAMEALLKAIKAHYGDDPLAQETAKKIEELIKELKKLLKEAK
B17: GBRAP_78_6659 (protein)
chain: EVEELLDKALELARELRKLAKGLSPEIQNLAAEVEVLVGEALYLYEVENASKEELIKQAEEALKKAEELKKKLEGVDEEALKAAEKLIKALEELIKALKK
B18: GBRAP_80_6793 (protein)
chain: AEERLRRALEEIERLDPELAERVRRIIELAREMGVPLEALADYAEAIAELLRLDPEEARRLVEELEELLEEEREEGNAEEAEAVVRVYAGEALLEVEELE
B19: GBRAP_26_5433 (protein)
chain: IEEILDEMRDRLEAAADELLDPELAAALKAEIDTLIYELEEKIEEENLSLEEIEKLLEEMVKELVEAAKTLGVPEEKIEKLRKAFEEAAEEALKRIKEER

molecular target: GABARAP, O95166; assay: median log2 fold change of GCK-ALFA target abundance (FLAG IP / Myc IP barcode read proportion) (log2 ratio); each designed protein is fused to an ALFA-tag nanobody in HEK293 cells to bring the named protein to FLAG-tagged glucokinase (GCK); Myc marks an untargeted standard; higher = target protein stabilised (more abundant); conditions: target protein: 3xFLAG-MCP-GCK-ALFA reporter; HEK293 landing pad (RPLP)
Sequence (O95166 whole entry, the tested form may be a part): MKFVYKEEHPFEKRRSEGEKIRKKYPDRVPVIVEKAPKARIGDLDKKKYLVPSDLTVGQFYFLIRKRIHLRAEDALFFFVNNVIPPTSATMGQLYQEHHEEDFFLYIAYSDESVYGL
In short: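 The readout is target abundance, the per-binder median log2 ratio of FLAG to Myc barcode read proportions. It came from HEK293 landing-pad cells carrying a recombined ALFA-nanobody-fused binder library, induced with 2 μg mL^−1 doxycycline and transfected with a plasmid for a FLAG-tagged target and a Myc-tagged standard. After 48 h, lysates were immunoprecipitated with anti-FLAG and anti-Myc, and circular RNA barcodes were reverse transcribed, amplified and sequenced. Each barcode needed a proportion of at least 10^−7 in both replicates and each binder at least 3 barcodes per replicate, a pseudocount of 10^−6 was added, and the replicates were pooled.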

| Binder | median log2 fold change |
| --- | --- |
| B1 | -0.0313 |
| B2 | -0.0537 |
| B3 | 0.123 |
| B4 | 0.084 |
| B5 | -0.086 |
| B6 | 0.206 |
| B7 | -0.163 |
| B8 | 0.126 |
| B9 | 0.188 |
| B10 | 0.192 |
| B11 | 0.0718 |
| B12 | -0.314 |
| B13 | -0.037 |
| B14 | 0.0874 |
| B15 | 0.0521 |
| B16 | 0.317 |
| B17 | 0.0581 |
| B18 | -0.394 |
| B19 | 0.22 |
